The source gives no read counts; variants with many changes may rest on few reads.

First the molecules themselves.
B1: LINE1-mini (parent)
chain: GGCAGAGCUCAACACAGCGUGGCAAAGUGGCUGUGGCUAGACUGCC

In the data set the parent is B1. In words: self-cleavage, relative activity (ratio to wild type); higher = more cleavage; in vitro, sequencing; the parent is a self-cleaving ribozyme.
Regarding GCCAGAGCUCAACACAUCGUGGCAAAGUGGCUGUGGCAAGACUGCC [G2C G17U U38A], the self-cleavage stood at 0.08. Consider GCCAGAGCUCAACACAGCGUCGAAAAGUGGCUGUGGCUAGACUGCC [G2C G21C C23A], for which the self-cleavage was determined as 0.19.

As to GCCAGAGCUCAACACAGCAUGGCAAAGUGGCUCUCGCUCGACUGCC [G2C G19A G33C G35C A39C], the self-cleavage turned out to be 0.07. For GCCAUAGCUAAACACAGCGUGGCAAAUUGGCUGUGGCUAGACUGCC [G2C G5U C10A G27U], the self-cleavage was determined as 0.01. Consider GCCACAGCUCAACACAGCGUGGUAAAGUGGCUGUGGCUAGACUGCC [G2C G5C C23U], for which the self-cleavage turned out to be 0.05. Then GCCAGAUCUCAACACAGCGUGGCAAAGUGGCUGUGGGUAGAAUGCC [G2C G7U C37G C42A], with 0.03; and GCCAGAGCUCAACACAACGUGGCAAAGUAGCUGUGGCUAAACUGCC [G2C G17A G29A G40A], with 0.04. GCCAGAGCUCAACACAACAUGGCAAAGUGGCUGUUGCUAGACUGCC [G2C G17A G19A G35U]: the self-cleavage came out at 0.09.

Regarding GCCAGAGCUCAACACAGCAUGGCAAAGUGGCUGUGGCUAGACUGAA [G2C G19A C45A C46A], the self-cleavage turned out to be 0.41.

Regarding GCCAGAACUAAACCGAGCGUGGCAAAGUGGCUGUGGCUGGACUGCC [G2C G7A C10A A14C C15G A39G], the self-cleavage is 0.03. Then GCCAUAACUCAACACAGCGUGGCAGAGUAUCUGUGGCUAGACUGCA [G2C G5U G7A A25G G29A G30U C46A], with 0.07; and GCCAGAGCUCAACACAGCUUGGCAAAGUGGCUGGGGUUAGACUGCC [G2C G19U U34G C37U], with 0.07; and GCCAGAACUCAACACAGCGUGUCAAAGUGGCUGUGGCUAGACUCCU [G2C G7A G22U G44C C46U], with 0.16. As for GCCAGAGCUCAACACAGCUUGGCAAAGUGGCUGUGUCUAGAGUGGC [G2C G19U G36U C42G C45G], the self-cleavage stood at 0.08. Consider GCCAGAGCUCAACACAGCGUGACAAAGUGGCUGUGGCAAGGCUGCC [G2C G22A U38A A41G], for which the self-cleavage came out at 0.12. Then GCCACAGCUCAACACAGCGUGGCAAAGUCGCUGUGGCUAGACUGGC [G2C G5C G29C C45G], with 0.04; and GCCAGAGCUCAACACAGCGUGGCAAAUUGGCUGUGGAUAGACUUCC [G2C G27U C37A G44U], with 0.18. As for GCCAGAGCUCAACACAGCGUAGCAAAGUGGCUGUCGCUAGACUGCA [G2C G21A G35C C46A], the self-cleavage worked out at 0.02. For the variant GCCACAGCUCAACACAGCGUGCCAAAGUGGCUGUGGCUAGUCUGCC [G2C G5C G22C A41U], the self-cleavage came to 0.05. With GCCAGAGCUCAACACAGCGUAGCAUGGUGGCUGUGGCUAGAAUGCC [G2C G21A A25U A26G C42A], the self-cleavage is 0.22. In the case of GCCAGAACUCAACACAGCGUGGCAAAGUGGCUGUGGCUCGACAGCC [G2C G7A A39C U43A], the self-cleavage amounted to 0.08. The same measure for GCCAGAACUCAACACAGCGUGGCUAAGUGGCUGUGGCUAGACUGCC [G2C G7A A24U]: 0.14. The same measure for GCCAGAGCUCAACACAGCGUGUAAAAGUGGCUGUGGCUAGACAGCC [G2C G22U C23A U43A]: 0.05; for GCCAGAACUCUACACAGCGUUGCAAAGUGGCUGUGGCUAUACUGCA [G2C G7A A11U G21U G40U C46A]: 0.01; for GCCACAGCUCAACACAGCGUGGCAAAGUGGCUGUGGCUAGACUGUC [G2C G5C C45U]: 0.04. Then GCCAGAGCUCAACACAGCCUGGCAAAGUGGCUGUGGCUGGACUGCC [G2C G19C A39G], with 0.02. On to GCCAGAGCUCAACACAACGUUGCAAAGUGGCUGGGGCUGGACUGCC [G2C G17A G21U U34G A39G], for which the self-cleavage worked out at 0.01. As for GCCAGAACUCAACACAGCGUAGCAAAGUGGCUGUGGAUAGACUGCC [G2C G7A G21A C37A], the self-cleavage amounted to 0.23. As to GCCAGAGCUCAACACAGCGUGGCAAACUGGCUGUGGCUAGACCGCC [G2C G27C U43C], the self-cleavage was 0.09. Turning to GCCAGAGCUCAACACAGCGUCGCAAAGUGGCUGUUGCUAUACUGCC [G2C G21C G35U G40U], the self-cleavage came to 0.06.

With GCCAGAGCUCAACACAUCGUGGCAAAGUAGCUGUGGCUAGACUGCC [G2C G17U G29A], the self-cleavage amounted to 0.03. As for GCCAGAGCUCAACACAUCGUGGCAAAGUGGCUGCGGCUAGACUCCC [G2C G17U U34C G44C], the self-cleavage is 0.09. The same measure for GCCAUAGCUCAACACAGCGUGGCAAAGUGGCUGUGGCUAGACUCUC [G2C G5U G44C C45U]: 0.04; for GCCAGAGCUCAACACAUCUUGGCAAAGUGGCUGUGGCUAGACUGCC [G2C G17U G19U]: 0.02; for GCCAGAGCUCAACACAGCGUGGCAAAUUGGCUGUGGCUAUACUGCC [G2C G27U G40U]: 0.11. Consider GCCAGAUCUCAACACAGCGUGGCUAAGUGGCUGUGGCUAGACUAUC [G2C G7U A24U G44A C45U], for which the self-cleavage came out at 0.06. Then GCCACAGCGCAAUUCAGCGUGGCAAAGUGGCUGUGGCGAGACUGCC [G2C G5C U9G C13U A14U U38G], with 0.01; and GCCAGAGCUCAACACAGCGUCGCAAAGUGGCUGUGGCUAGAUUACC [G2C G21C C42U G44A], with 0.26; and GCCAGAGCUCAACACAUCGUGGCAAACUGGCUGUGGCUAGAGUGCC [G2C G17U G27C C42G], with 0.1.

Consider GCCAGAGCUCAACACAGCGUGUCAAACUGGCUGUGGCUAGAUUGCC [G2C G22U G27C C42U], for which the self-cleavage is 0.03. Take GCCAGAGCUCAACACAGCAUGGCAAAGCGGCUGUGGCUAGACUGCC [G2C G19A U28C]: the self-cleavage turned out to be 0.98.

For the variant GCCAGAGCUCAACACACCGUGGCAAAGUGUCUGUGGCUAGACUGCC [G2C G17C G30U], the self-cleavage was found to be 0.09. For the variant GCCAGAGCUCAACACAUCGUGGCAAAGUGGCUGUGGGUAGACUCCC [G2C G17U C37G G44C], the self-cleavage is 0.1. The same measure for GCCACAGCUCAACACCGCGUGGCAAAGUGGCUGUGGCUAGACUGCC [G2C G5C A16C]: 0.01; for GCCACUACUAAACACAGCUUGGCAACGUGGCUGUGGCUAGACUGGC [G2C G5C A6U G7A C10A G19U A26C C45G]: 0.04; for GCCACAGCUCUACACAGCGUGGCAAAGUGGCUGUGGCUAGACUGCC [G2C G5C A11U]: 0.02.

As to GCCAGAGCUCAACACAGCAUAGCAACGUGGCUGUGGCUAGACUGCC [G2C G19A G21A A26C], the self-cleavage was found to be 0.21. On to GCCACAGCUCAACACAGCGUGGCAACGUGGUUGUGGUUACACUGCC [G2C G5C A26C C31U C37U G40C], for which the self-cleavage stood at 0.01. Consider GCCAUAGCUCAACUCAGCGUGGCAAAGUGGCUCUGGCUAGACUGCC [G2C G5U A14U G33C], for which the self-cleavage came to 0.01. For GCCAGAGCUCAACACAACGUGGCAAACUAGAUGUGGCUAGACUGUC [G2C G17A G27C G29A C31A C45U], the self-cleavage amounted to 0.04. GCCAUAGCUCAACACAGCGUUGUAAAGUGGCUGUGGCUAGACCGCC [G2C G5U G21U C23U U43C]: the self-cleavage was 0.02. For GCCACAGCUCAACACAGCGGUGCAAAGUGGCUGUGGCUAGACUGCC [G2C G5C U20G G21U], the self-cleavage was found to be 0.01.

GCCAGAGCUCAACACAGCAUGGCAAAGUGGCUGUGGCUAGACUGGC [G2C G19A C45G]: the self-cleavage worked out at 0.8. In the case of GCCAGAGCUCAACACAACGUUGCAACGUGGCUGUCGCUAGACUGCC [G2C G17A G21U A26C G35C], the self-cleavage was found to be 0.04.

As for GCCAGAGCUCAACACAUCUUCGCAAAGUGACUAUGGAUAGACUGCC [G2C G17U G19U G21C G30A G33A C37A], the self-cleavage came to 0.09. The same measure for GCCAGAUCUCAAUACAGCGAGGCAAGGUGGCUGUGGCUAGACUGCC [G2C G7U C13U U20A A26G]: 0.08.
